Molecular target: T1, epi-isozizaene synthase (EIZS) (Streptomyces coelicolor, UniProt Q9K499)
T1 sequence (Q9K499 1-361): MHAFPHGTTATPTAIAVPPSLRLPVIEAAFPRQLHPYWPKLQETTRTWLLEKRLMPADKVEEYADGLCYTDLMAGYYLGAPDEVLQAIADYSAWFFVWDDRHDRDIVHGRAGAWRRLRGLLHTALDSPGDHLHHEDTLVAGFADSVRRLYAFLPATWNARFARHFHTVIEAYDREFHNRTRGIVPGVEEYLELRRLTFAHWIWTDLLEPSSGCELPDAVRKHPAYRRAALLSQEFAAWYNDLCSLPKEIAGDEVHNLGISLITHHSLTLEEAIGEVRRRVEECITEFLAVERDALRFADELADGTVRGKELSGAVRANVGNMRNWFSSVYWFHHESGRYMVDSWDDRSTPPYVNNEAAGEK
Assay: HPLC product analysis at […] nm
Format: biochemical
Conditions: minor activity

## CC(C)=CCOP(=O)(O)OP(=O)(O)O [DMAPP]
Prenyl donor with indole
  HPLC product analysis at 280 nm: Both LS and EIZS showed minor prenylation activity with DMAPP

## c1ccc2[nH]ccc2c1 [indole]
Prenyl acceptor with DMAPP
  HPLC product analysis at 280 nm: Both LS and EIZS showed minor prenylation activity with DMAPP

From paper PMC8594881 (ACS catalysis, 2021)
